Results on one compound are retold here after PubChem BioAssay (NCI).

More than one record can exist for a structure, and the calls need not agree.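 Growth was measured after 48 h exposure to one concentration of compound in 96-well plates. Values under 10 count as active.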 Certain results were filed several times, with different values. Only these are listed. There may be further records. For some of these results: The screen tested this drug many times, at the concentration stated with the values; one value stands for one run. Signs of the kind (2×) stand for listed records that agree. Some values that stand alone complete this part of the results. Activity calls are given as the source filed them.

The test system of one assay is SK-MEL-5 melanoma. The experiment in a line: NCI-60 one-dose screen, 48 h (100 = growth as untreated, 0 = no growth, -100 = all killed).
For a further assay, the system named is UACC-62 melanoma. The assay is described as above. The settings on record: 0.25 µM; runs of 2006.

As for `COc1cccc2c1C(=O)c1c(O)c3c(c(O)c1C2=O)C[C@@](O)(C(=O)CO)C[C@@H]3OC1CC(N)C(O)C(C)O1` (some centres not stated), the growth result was “inactive: 23, 21.1, 24.3, 36.8, 45.6, 43.4, 51.6, 37.8, 57.1, 63.1, 38.3, 26.2, 17.7, 16.6, 11.2, 15.4, 37.6, 36.7, 46.8 (2×), 52.2, 42.8, 43.7, 40.7, 43, 56.6 (2×), 42.3, 41.4 (2×), 46.4, 37.1, 11.1, 52.5, 31.4, 35.1, 53.7, 47.6, 55.2, 61.1, 59, 49.6, 47.7, 59.3, 56.1, 65.1, 69.4, 70.9, 66.2, 60.2, 65.7, 72.1, 25.2, 27.1, 37.4, 25.9, 25.7, 41.7, 55.7, 48.7, 50.9, 42.1, 45.9, 50, 50.8% and active: 6.53, 8.84, -2.08, -18.7, 8.07, 8.19%” in the assay with SK-MEL-5 melanoma (0.25 µM, runs of 2012); “inactive: 58, 64.4, 45 (2×), 41, 40.1 (2×), 46.1 (2×), 25.7 (2×), 27, 30.4, 34.4, 40.7, 39.7, 44.2, 38, 45.3, 49.8 (2×), 53.3, 53, 38.4, 45.6, 44.8, 47.9, 48.5, 48.2, 55.4, 29.4, 58.6, 55.1, 48.8, 24.2, 30.2, 37, 38.5, 30.6, 41.7, 37.7, 34.7, 49, 49.4, 42.9, 39.8, 44, 51.1, 59.6, 59.9, 67.4, 69.4, 62.9, 60.3, 58.5, 68.2, 14.5, 21.1, 15.3, 14, 14.2, 42.5, 29.5, 25.3, 34.3, 46.3, 39.1% and active: 4.1%, -1.54%” with SK-MEL-5 melanoma (0.25 µM, runs of 2013); “active: 6.88, 3.54, 7.24, -18.9, -5.26% and inactive: 14.1 (2×), 17.6, 28.1, 28.3, 12.2, 30.8, 36, 29.7, 25.8, 43.5 (2×), 61.3, 53.7, 47.3, 32.5, 37.8, 27.4, 15.9 (2×), 10, 12.5, 22.2, 21.1, 18, 19.6, 17.4, 32.3, 27, 23.4, 45.7, 41.5, 25.1, 42.7, 41.7, 30.3, 24.4 (2×), 28.5, 23.9, 33.7, 43.4, 51.7, 28.2, 61.1, 43.7, 27.7, 12, 29.1, 15.5, 21, 25.4, 40.4, 29.3, 42.4, 40.8, 48.3, 35.5, 20, 32.2, 46.3, 41.4, 38, 61.4, 55.4, 53.1, 41.2%” in the assay on SK-MEL-5 melanoma (0.25 µM, runs of 2014); “inactive: 11.6, 21.5, 22.4, 16.3, 32.6, 24.9, 22, 34 (2×), 13.8, 42, 38.9 (2×), 28.3, 44.9, 57.5, 36.2 (2×), 12.6, 30.6, 14.5, 35.6, 47.3, 61.5, 44.8, 40.8 (2×), 41, 38.3, 16.8, 23.9, 24.3, 30.4, 35.1, 20.4, 32.2, 48.2, 17.6, 27.1, 27.7, 33, 41.1 (2×), 17.7, 31.8, 50.8, 26.2, 18, 26.6, 44.5, 28.1, 58.6, 57.6, 44.4, 49.3, 48, 37.1, 46.5, 48.1, 34.2, 42.2, 30.8, 37.6, 34.4, 25.5, 31.4, 39.5% and active: 2.37, -5.75, 3.56, -7.36, 3.43, 9.51, -10.4, 5.65, 6.74%” in the assay with SK-MEL-5 melanoma (0.25 µM, runs of 2015); “inactive: 27, 25.4, 13.8, 20.5, 41.5, 66.3, 34.8 (2×), 16.5, 23.6 (2×), 57.5, 58.7, 50.2, 49.6, 36.1 (2×), 49.4, 41.1, 55.9, 54 (2×), 45.3, 35, 50.4 (2×), 38.6, 44.5, 12.1, 14.6, 26.5, 23, 33.1, 32.8, 45.4, 46.1 (2×), 42.7, 55, 43.4, 46.4, 41.2 (2×), 48.8, 50.9, 50.7, 50.6, 65.6, 40.1 (2×), 36, 32.5, 34, 49, 52.1, 25.8, 30.2, 35.4 (2×), 36.5 (2×), 37.4, 39.6, 41.7, 46.7, 37.7, 30.4, 49.5, 52.2, 34.9, 35.9, 29.2, 33.3, 40.5, 55.3, 61% and active: 2.57, 7.17, -1.83, 4.75, 1.56, 2.05, 6.67, -0.405%” in the assay with SK-MEL-5 melanoma (0.25 µM, runs of 2016); “inactive: 16.9 (2×), 25.3, 20.7 (2×), 24.9 (2×), 21.5, 17.8, 27.4, 34.4, 29.5, 38, 18.5, 21.4 (2×), 24.2, 17, 34.3 (2×), 37.2, 24.8, 28.4, 20.8, 28.1, 29.3, 37, 36.4, 45.3, 50.7, 51, 32.5 (2×), 52.2, 54.4, 16.7, 13.1, 17.6 (2×), 21.8, 25.2, 19.3, 27.8, 30.5, 23.9, 20.2 (2×), 16.6, 17.4, 24.6 (2×), 26.1, 21, 33.7, 33.9, 28.9, 30.9, 31.7, 29.8, 13.3, 22.6, 32.7, 17.5, 22.9, 19.4, 23.3, 18.4, 17.7, 28, 19.6, 25.6, 18.6, 46.4, 47.7, 54.3, 13.7, 15.8, 14.3% and active: 1.75%, 7%, 6.9%” in the assay with SK-MEL-5 melanoma (0.25 µM, runs of 2017). Besides, the growth entry in the assay with SK-MEL-5 melanoma (0.25 µM, runs of 2018) was “inactive: 31.4, 35.5, 22.8, 25.7, 33.8, 31.1, 23.9 (2×), 31.7, 19.8, 14.4, 31.3, 32.7, 26.9, 27.5, 21.1, 24.8, 18, 14.8, 17.8, 30, 21.5, 23.4, 25.9, 18.9, 22.6, 22.3, 29.4, 13.5, 27.1, 42.3, 36.8, 30.3, 28.8, 39.8, 37.6, 36.5, 39.6, 55, 50.2, 58, 52.5, 55.9, 59.2, 51.2, 50.3, 29.6, 27.6, 11.9% and active: 8.63%, -9.2%”; in the assay on SK-MEL-5 melanoma (0.25 µM, runs of 2019) it was “inactive: 12.7 (2×), 25.3, 13.4, 44.6, 32.6 (2×), 38.4 (2×), 44.2, 37.2, 44.7, 50.2, 12.8, 15.5, 23, 13.7, 25.8, 20.8, 22.9, 28.7, 15 (2×), 38.6, 26, 29.6, 41.5, 32.8, 33, 23.2, 22 (2×), 20.2, 26.9, 27.4, 38.2, 35.6, 29.5, 32.7% and active: 8.26, 7.77, 5.01, 8.12, 7.91%”; in the assay on SK-MEL-5 melanoma (0.25 µM, runs of 2020) it was “inactive: 19.8, 45.4, 30.8, 29.2, 50, 43.2, 32.7, 35.7, 20, 19.6, 21, 34.1, 37.1, 48.4, 64.5, 38.5, 47.2, 60.4, 50.6, 43.6, 51.2, 54, 56.9, 63.1, 63.8% and active: 4.55%”; in the assay on SK-MEL-5 melanoma (0.25 µM, runs of 2021) it was “inactive: 30.3, 43.8, 30, 40.1, 27.7, 35.5, 38 (2×), 34.9, 27.8, 29.3, 33.4, 25.2, 38.6, 19.8 (2×), 24.6, 15.2, 22.5, 15.5, 33.6 (2×), 28.2, 47.6, 52.5, 38.1, 21, 28, 53.6, 45.7, 37.5, 10, 11.2, 16.8, 30.8, 34.1, 29.6, 17.2, 26.8, 43.2, 59.4, 61.3, 47.1, 31.1, 52.7, 36.4, 16, 26, 10.5, 30.1, 22.6% and active: -2.26%, -1.16%”; in the assay with SK-MEL-5 melanoma (0.25 µM, runs of 2022), “active: -90.8, -85.8, -92.7, -27.8, 3.27, -8.22, 2.02% and inactive: 27.1, 28.8, 14.2, 10.4, 29.6, 29.5, 41.1, 60.2, 39.7, 15.9, 49.2, 58.4, 16.9, 44.2, 50.3, 81.7, 33.3, 32.4, 25.7, 25.8, 38%”; with SK-MEL-5 melanoma (25 µM, runs of 1991), “inactive: 13.9% and active: -97, -94.9, -95.9, -98.8 (2×), -98.5, -100 (2×), -97.1, -95.3, -93.3, -99.3, -99.5, -91%”. The growth result in the assay with SK-MEL-5 melanoma (25 µM, runs of 1992) was “active: -96.6, -61.7, -66.8, -98.7 (3×), -98.3, -100 (25×), -99.2 (2×), -99.6 (5×), -63.1, -33.6, -82.6 (2×), -98 (3×), -99.7 (4×), -97.7 (2×), -99.1, -53.9, -54.6, -25.8, -58.5, -87.4, -73.6, -75.7, -93.8, -96.7, -93.3 (2×), -96.2, -99.8 (5×), -83.1, -85.1, -71.7, -62.1, -97 (3×), -99, -96.5, -98.9 (2×), -98.2 (2×), -73.4, -54.8, -61.1, -93.6, -99.5 (3×), -97.4, -98.5, -84.3, -42.8, -51.4, -33.7, -93.7, -81.7, -94.5, -96.3 (2×), -55.3, -66.7, -85, -96.1, -94.1, -41.6, -92.4, -88.5, -27 (2×), -89.8, -96, -82.9, -43.4, -64.2, -96.8, -30, -97.1% and inactive: 20.5%”; in the assay on SK-MEL-5 melanoma (25 µM, runs of 1993), “active: -98.2 (2×), -100 (9×), -38.4, -86.5, -98.4, -88.7 (2×), -76.8, -99.1, -99.7, -89.5 (2×), -86.2, -95.8, -68.6, -98, -96.4, -98.8 (2×), -58.5, -84.4 (2×), -90.2, -89.1, -51.1, -99.8, -39.2, -95.6, -98.9 (2×), -95.7, -98.6, -72.1, -90, -94.1, -84.3, -99.6, -99.2, 0.518%”; in the assay on SK-MEL-5 melanoma (25 µM, runs of 1994) it was “active: -88.3, -100 (9×), -98.8, -99.7, -96.7 (2×), -98.4 (2×), -96.1, -90, -92.8, -97.1, -29.3, -99.6, -94.3, -95.9, -86.3, -97.7, -92.7, -93.8, -98, -84.5, -95.5, -76.4% and inactive: 75.6%”; with SK-MEL-5 melanoma (25 µM, runs of 1995), “active: -87.6, -100 (6×), -80.1, -95.9, -81.3, -91.1 (2×), -94.2, -89.4 (2×), -88.2, -49.9, -48.7, -87.7, -95.4, -96.7, -60.8, -95.1, -98.3, -86.8, -58.8, -54.8, -44.6, -60.4, -25.5, -37.1, -82.1, -38.1, -84.9, -90.6, -88.7, 5.86, -83.4%”; in the assay with SK-MEL-5 melanoma (25 µM, runs of 1996), “active: -62.6, -7.84, -100 (8×), -84.9, -63.2, -97.7 (2×), -54.8 (2×), -92.9, -94.7, -66.1, -97.9, -48.6, -93.3, -91.8, -93.2, -85.4, -95.1, 9.61, -79.4, -90, -84 (2×), -77.8, -69, -98.5, -88.9, -23.6, -97, -99.5, -96.5, -54.1, -58.3, -85, -86.9, -68.2, -5.81, -67.1, -81.4, -62.3, -73.2, 0.839, -58, -83.8, -91.7, -2.8, -69.6% and inactive: 104%, 89%”; with SK-MEL-5 melanoma (25 µM, runs of 1997), “active: -91.6, -63.6, -76.3, -6.1, -69, -9.8, -92.1, -77.8, -98.5, -100 (6×), -98.9, -98.2, -98.7, -78.6 (2×), -82.2, -67.2, -77.9, -52.7, -99.3 (2×), -90.7, 1.49, -89.8, -96.7, -99.4, -88, -93.8, -90.6, -65.2, -60.1, -51.9, 8.81%”. The growth entry is “active: -96.5, -100 (5×), -99.1, -97.3, -89.4, -63.3, -92.5, -63.9, -77.3, -98.1 (2×), -90.4, -94.2, -91.4, -89.5, -74.2, -85.6, -98.8, -93.9, -76, -65.9%” in the assay with SK-MEL-5 melanoma (25 µM, runs of 1998); “active: -70.7, -62.2, -40.2, -93.5 (2×), -86.8, -100, -91.9, -41.9, -99.2, -69.6, -98.3, -36.9, -74.9, -77.2, -81.5, -57.8, -19.9%” with SK-MEL-5 melanoma (25 µM, runs of 1999); “active: -100% (2×), -28.7%, -93.5%” in the assay with SK-MEL-5 melanoma (25 µM, runs of 2000); inactive: 27.9% in the assay with UACC-62 melanoma.
